PubChem BioAssay AID485281 (National Center for Advancing Translational Sciences (NCATS), 2010)
Values joined by “and” are separate entries in the source; they are usually repeats but may differ in a detail not shown here. Equal entries are not always repeated. Hit rate of the full screen: of about 350,000 compounds, about 260 (0.074%) were called active. The inconclusive results got no clear call from the source; some entries with a clear call stand among them for comparison. Calls come from the whole dose curve; as a rule, active = well fitted inhibition curve with a large enough effect; inconclusive = small, poorly fitted or top-dose-only effect; inactive = no such curve, though single readings can be large or run the other way. A potency beside an inconclusive call is a rough fit, not a confirmed value.

biological target: Ferritin light chain (Equus caballus) (UniProt P02791); experiment: qHTS Assay for Identification of Novel General Anesthetics; conditions: apoferritin/1-aminoanthracene competitive binding, fluorescence; activity change, negative = displacement: at 77.5 µM (top of the series); note: nearly all actives have a fitted effect of over 20% in size
UniProt P02791, sequence (P02791 whole entry, looked up): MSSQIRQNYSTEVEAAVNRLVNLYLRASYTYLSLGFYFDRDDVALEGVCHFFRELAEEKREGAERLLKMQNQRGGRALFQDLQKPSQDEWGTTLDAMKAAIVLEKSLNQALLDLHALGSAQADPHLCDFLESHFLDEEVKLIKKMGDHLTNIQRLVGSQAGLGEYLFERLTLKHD
In short: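 Concentration-response curves derived by four-parameter Hill fitting of normalized fluorescence, where compounds displaced 1-AMA from 10 uM horse apoferritin following a brief 10 min room-temperature incubation; propofol titration acted as positive control.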
% is set by controls: 0 for no effect and ±100 for the full control effect; potency is the fitted concentration of half-maximal effect; tags give direction and shape of the fitted curve.

Potency, inconclusive:
COc1ccccc1C(=O)/C=C/c1ccc(N2CCCCC2)c([N+](=O)[O-])c1 28.2 µM [inhibitor, partial curve, poor fit]
Cc1ccc(C(=O)C2CCN(C(=S)NCCCOC(C)C)CC2)cc1 44.7 µM [inhibitor, single point]
CCCOc1cccc(C2c3c(oc4cc(C)c(C)cc4c3=O)C(=O)N2CCCN2CCOCC2)c1 (stereo unspecified) 35.5 µM [inhibitor, partial curve]
CCN(CC)S(=O)(=O)c1ccc(-c2nnc(SCC(C)=O)o2)cc1 44.7 µM [inhibitor, single point]
CCOC(=O)c1oc2ccc(S(=O)(=O)n3nc(-c4ccccc4)cc3N)cc2c1C 3.55 µM [inhibitor, full curve, poor fit]
Cc1cc(C)c2c(=O)[nH]c(SCc3ccccc3)nc2n1 35.5 µM [inhibitor, single point]
Cc1ccc2[nH]c(=O)c(C(c3nnnn3Cc3ccccc3)N3CCc4ccccc43)cc2c1 (stereo unspecified) 7.08 µM [inhibitor, full curve]
CC(C)(C)C(=O)Nc1nnc(SCc2cccc(F)c2)s1 25.1 µM [inhibitor, partial curve]
CC(C)=CCC/C(C)=C/CC(C)(C)CNCCN1CCNCC1 28.2 µM [inhibitor, partial curve]
Cc1snc(SCC(=O)c2ccc(Cl)cc2)c1C#N 28.2 µM [inhibitor, partial curve]
Cc1cccc(NC(=O)NCCc2c[nH]c3ccccc23)c1 28.2 µM [inhibitor, single point]
Clc1cccc(-c2ccc(C=Nc3ccc(N4CCOCC4)cc3)o2)c1Cl 10 µM [inhibitor, partial curve]
CC(C)(C)NC(=O)COC(=O)c1cc(Br)ccc1Cl 35.5 µM [inhibitor, single point]
COc1ccc(C)cc1NC(=O)CSc1ccc(-c2ccccn2)nn1 20 µM [inhibitor, single point] and 31.6 µM [inhibitor, partial curve]
Cc1ccc(/C=C2/SC(=S)N(CCCC(=O)Nc3ccc(O)cc3)C2=O)cc1 15.8 µM [inhibitor, partial curve]
Cc1nnc(SCC(=O)c2ccc(Br)cc2)s1 35.5 µM [inhibitor, partial curve]
COc1ccc(Cn2c(C)c(C)c(C#N)c2NC(=O)Nc2cccc(C)c2)cc1 20 µM [inhibitor, partial curve]
Cc1ccc(OCc2nnc(SCC(=O)N3C(C)CCCC3C)o2)cc1 (stereo unspecified) 28.2 µM [inhibitor, partial curve]
Cc1ccc(SCCN2C(=O)NC(C)(C)C2=O)cc1 28.2 µM [inhibitor, partial curve]
CC(=O)Nc1cc(-c2ccccc2)nn1Cc1ccc(Cl)cc1 22.4 µM [inhibitor, partial curve]
Cc1nn2c(=O)cc(COC(=O)c3cccc(NC(=O)c4ccc(C(C)(C)C)cc4)c3)nc2s1 28.2 µM [inhibitor, partial curve]
Cc1[nH][nH]c(=O)c1C(c1c(C)[nH][nH]c1=O)c1cn(Cc2cccc3ccccc23)c2ccccc12 15.8 µM [inhibitor, partial curve]
CC(C)(C)c1ccc(-c2cc(C(=O)NNC(=O)Nc3ccccc3)c3ccccc3n2)cc1 22.4 µM [inhibitor, partial curve]
O=S(=O)(Nc1ccc(F)cc1Cl)c1ccc(-c2cnc(C3CC3)o2)cc1 31.6 µM [inhibitor, single point]
CC(=O)c1ccc(NC(=O)C(C)OC(=O)c2ccc(NS(=O)(=O)c3ccc(F)c(F)c3)cc2)cc1 (stereo unspecified) 7.08 µM [inhibitor, partial curve, poor fit]
COc1ccc(N=C2S/C(=C\c3ccco3)C(=O)N2CC(C)C)cc1 35.5 µM [inhibitor, partial curve]
CCCCCCCCCCCCCCCC(=O)C1=C(O)C(CO)OC1=O (stereo unspecified) 14.1 µM [inhibitor, partial curve]
COc1cc(NC(=O)Cn2nc(-c3ccc(C)c(C)c3)ccc2=O)cc(OC)c1 14.1 µM [inhibitor, partial curve]
CC(C)c1ccc(NC(=O)N2CCc3ccccc3C2)cc1 14.1 µM [inhibitor, partial curve]
COc1ccc(NC(=O)CSc2nnnn2C2CC3C=CC2C3)cc1 (stereo unspecified) 39.8 µM [inhibitor, single point]
CO/N=C(/c1nonc1N)N1CCN(c2ccc([N+](=O)[O-])cc2)CC1 12.6 µM [inhibitor, partial curve]
CCc1ccc(NC(=O)Nn2cnnc2)cc1 35.5 µM [inhibitor, single point]
CCCCCCCOc1ccc(C2(C)NC(=O)NC2=O)cc1 (stereo unspecified) 39.8 µM [inhibitor, partial curve]
Cc1ccc(NS(=O)(=O)c2ccc(NS(=O)(=O)c3cccs3)cc2)cc1 25.1 µM [inhibitor, partial curve]
COc1ccc(-c2oc(NC(=O)CCl)c(C#N)c2-c2ccc(OC)cc2)cc1 35.5 µM [inhibitor, partial curve]
c1ccc(-c2cnnc(N3CCCCC3)n2)cc1 28.2 µM [inhibitor, partial curve]
O=C(CCC1N=C2c3ccccc3N=C(SCc3ccc(Cl)cc3)N2C1=O)NCc1ccco1 (stereo unspecified) 35.5 µM [inhibitor, partial curve]
Cn1c(C(=O)c2ccccc2[N+](=O)[O-])nc2ccccc21 22.4 µM [inhibitor, partial curve]
Cc1snc(SCC(=O)c2ccc(F)cc2)c1C#N 22.4 µM [inhibitor, partial curve]
Nc1ccccc1Oc1ncc(C(F)(F)F)cc1Cl 50.1 µM [inhibitor, partial curve]
Cc1nnc(SCc2cccc([N+](=O)[O-])c2)o1 31.6 µM [inhibitor, partial curve]
Cc1ccc(O)c(CNc2cccc3cccnc23)c1 15.8 µM [inhibitor, partial curve]
CCSC1=C(C#N)C(c2ccc(C)s2)CC(=O)N1 (stereo unspecified) 35.5 µM [inhibitor, single point]
CN(c1ccc(C(=O)N2CCOCC2)cc1[N+](=O)[O-])C1CCCCC1 17.8 µM [inhibitor, partial curve]
Cc1cccc(OC(=O)CN2C(=O)C3C4CCC(C4)C3C2=O)c1C (stereo unspecified) 20 µM [inhibitor, partial curve]
Cc1cccc(NC(=O)c2ccc(N3CCCCC3)c([N+](=O)[O-])c2)n1 22.4 µM [inhibitor, partial curve]
CC(=Nc1ccc(C)c(C)c1)C1=C(O)CSC1=O 50.1 µM [inhibitor, single point]
CNC(=O)c1sc2ncccc2c1-n1cccc1 11.2 µM [inhibitor, partial curve]
Cc1ccc(NCc2ccc(C)s2)cc1 4.47 µM [inhibitor, full curve]
COc1cc(C(=S)NCc2ccccc2)cc(Br)c1O 31.6 µM [inhibitor, single point]
O=C(COc1ccc(Cl)cc1Cl)N/N=C1\CCCc2ccccc21 4.47 µM [inhibitor, full curve, poor fit]

Activity change, negative = displacement, inconclusive:
Cc1ccc(NS(=O)(=O)c2cc(Br)cnc2N)c(Cl)c1 -35.2% [inhibitor]

Activity change, negative = displacement, inactive:
O=C(Cn1nnnc1-c1ccccc1F)Nc1ccc(F)c(F)c1 -1.53%
CCc1ccc(-c2cc(-c3n[nH]c(=S)n3CC)c3ccccc3n2)cc1 -15.6%
Cc1ccc(C)c(C(=O)CSc2nc3cc(C(=O)NC4CCCC4)ccc3c(=O)n2CC2CCCO2)c1 (stereo unspecified) -10.4%
Cc1cc(N2CCN(c3ccccc3)CC2)n2ncnc2n1 -7.28%
CCOCCCNC(=O)C(NC(=O)c1cnccn1)c1ccc(OC)cc1 (stereo unspecified) -7.42%
COc1ccccc1OCC(=O)Nc1nc(C)c(C)s1 -2.84%
CC(C)CC(=O)Nc1ccc(C(=O)CN2CCC(C)CC2)cc1 -12.5%
O=C(/C=C/c1ccco1)Nc1ccc(N2CCCC2)cc1 -0.431%
COc1ccc(CCC(=O)NC2=NCCS2)cc1OC -16%
COc1ccc(-n2nc([N+](=O)[O-])c(=NCCCN3CCCC3=O)n2O)cc1 -11.6%
COc1ccc2ncc3c(-c4ccc(C)c(C)c4)nn(CC(=O)NC4CCCCC4)c3c2c1 -4.23%
Cc1ccc2[nH]c3c(=O)n(CC(=O)N4CCN(c5cccc(C(F)(F)F)c5)CC4)ncc3c2c1 -11.2%
CC#CC(C)C(OCOC)C(CC(C)Cc1cc(Br)cc(OCc2ccccc2)c1OC)OC (stereo unspecified) -13.5% [at 15.3 µM]
CCOc1ccc(Br)cc1CNCCSc1nnnn1-c1ccccc1 -6.46%
